The values that follow come from the supplement of paper PMC7826260.

This is one part of the list. Each Rep nickase domain was tested in vitro on the same pool of single strands (3 µM enzyme, 1 h, 37 °C); shown is the middle of each 90-letter strand. Numbers give uncut DNA relative to the enzyme-free pool, as log2; the lower, the more was cut; hits are not called. Shares of all reads are compared; values above 0 arise when much of the pool is cut.

The assay deals with T1, Rep nickase domain of tomato golden mosaic virus.
T1 sequence (residues 1-124, tag not shown): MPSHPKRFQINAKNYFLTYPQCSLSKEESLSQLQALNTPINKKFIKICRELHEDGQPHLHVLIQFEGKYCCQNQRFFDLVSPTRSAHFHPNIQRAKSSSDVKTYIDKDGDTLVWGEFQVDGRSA
Briefly: uncleaved DNA left, log2 of reads against the no-enzyme library (log2 ratio); higher = less cleavage (more negative = more Rep cleavage of the k-mer); sequences stand for … in CTCGTCCG…ACCGGAGA
Here is the method:
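A pool of 90-nt single-stranded DNAs with seven random bases just before the constant AC of the nick site (name = the seven bases) was cut by 3 µM recombinant His6-SUMO-tagged Rep nickase domain (300 nM DNA, 50 mM HEPES pH 8.0, 50 mM NaCl, 1 mM MnCl2, 1 h, 37 °C, three replicates). Uncut DNA was amplified and sequenced.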
For the sequence GCTAGCG, the “uncleaved DNA left (log2)” value is -0.00613.

Regarding ACTTTTA, the “uncleaved DNA left (log2)” value is -0.0618. The result for CCGGTAG reads -0.00188; that for ACAGCGG, -0.00734; that for ACCCACT, -0.0205. On to AGAGCGT, for which the “uncleaved DNA left (log2)” value is 0.205.

For AAATGAT, the “uncleaved DNA left (log2)” value is -1.85.

With TTACAAG, the “uncleaved DNA left (log2)” value is 0.0411.

On to ACCTGAT, for which the “uncleaved DNA left (log2)” value is 0.248. For GGATGGG, the “uncleaved DNA left (log2)” value was -0.0666.

Consider ACGACAA, for which the “uncleaved DNA left (log2)” value was -0.104.

As for CCCATAA, the “uncleaved DNA left (log2)” value is -0.208. Consider TAGCTAC, for which the “uncleaved DNA left (log2)” value was -0.0319.

For the sequence GAGCGTG, the “uncleaved DNA left (log2)” value was found to be 0.0958. For TGCATAG, the “uncleaved DNA left (log2)” value came to 0.0555.

For the sequence TTTCATG, the “uncleaved DNA left (log2)” value is -0.222. Consider CTTTTCC, for which the “uncleaved DNA left (log2)” value was -0.126.

With GAATTGT, the “uncleaved DNA left (log2)” value is -1. The result for GCAGGGA reads 0.159; that for TTGACCT, -0.0142; that for ATCGGTA, 0.00556.

AACGCGA: the “uncleaved DNA left (log2)” value is -0.0631. As to ATACACG, the “uncleaved DNA left (log2)” value was -0.122. Take TATTGAA: the “uncleaved DNA left (log2)” value is -0.0233. As to AGTCTAA, the “uncleaved DNA left (log2)” value came to 0.0979.

CTCTCTA: the “uncleaved DNA left (log2)” value was 0.0147. For TCAGCCG, the “uncleaved DNA left (log2)” value is -0.0818. The result for TCCCCCC reads -0.305.

In the case of ACTAAGA, the “uncleaved DNA left (log2)” value turned out to be 0.0423. Under TCATTCA stands -0.0425; under TTCCAGC, -0.137; under TTTTCGT, -0.139.

For TGGGAGT, the “uncleaved DNA left (log2)” value amounted to 0.0359.

Regarding AGTGTAT, the “uncleaved DNA left (log2)” value was determined as 0.0682. ATAGATC: the “uncleaved DNA left (log2)” value was -0.0227.

As for ATTAGGG, the “uncleaved DNA left (log2)” value turned out to be 0.153. Under TACGTAA stands -0.0121; under TGGGGGA, 0.162. Regarding GACTTGA, the “uncleaved DNA left (log2)” value stood at 0.127. On to CCGCAAG, for which the “uncleaved DNA left (log2)” value turned out to be 0.0797.
